Experimental data published in the supplement of paper PMC10126150.
Values marked as one replicate rest on one cluster of the flow cell; about a third of the high ones do not repeat.

System: ATP
Assay: switch fluorescence ratio, 500 uM ATP over buffer (Cy3 cluster intensity, sum of 5 cycles each) (fold (ratio)); higher = stronger signal-on switching upon ATP binding; sequences stand for … in TCGTCGGCAGCGTCAGATGTGTATAAGAGACAGTTTTTTTTTTTTTTTTTTTTTTTTT…TC
Conditions: aptamer strand: ATP DNA aptamer (quencher-CACCTGGGGGAGTATTGCGGAGGAAGG + anchor), 100 nM annealed; ATP concentration: 500 uM; one replicate
Summary of the method: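 Exposure to 500 uM ATP lasted 15 min at 22 °C before imaging, and a selection-buffer image was taken beforehand, for Cy3-labelled switching-strand clusters on a modified Illumina MiSeq flow-cell annealed to 100 nM quencher-labelled ATP aptamer. Five buffer/ATP cycles were run with NaOH stripping and re-annealing between them. The fluorescence ratio per cluster is summed target-cycle over summed buffer-cycle Cy3 intensity, averaged per switch-domain sequence. Clusters outside 100-1000 RFU were excluded.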

Row | Sequence | switch fluorescence ratio
1 | CAGATTGGAT | 0.967
2 | GCTGCGGTTC | 1.12
3 | GGATCCCAC | 1.05
4 | AGGGTGGTCG | 1.08
5 | AGTAGCCTTG | 1.02
6 | GTTTGTCGAC | 0.979
7 | CGCGATGAG | 1.15
8 | CTTAATAG | 1.05
9 | CATTATTTTA | 0.963
10 | TATATACCTC | 1.02
11 | ATGGCGTGTA | 1.02
12 | TTGGGGCCTT | 1.14
13 | TAATACTAAG | 1.03
14 | GGTCGTTATT | 0.979
15 | CTAAATGATG | 0.993
16 | TCAAGCTTCT | 1.07
17 | GCTAACTCGT | 1.04
18 | TAAGGGATTG | 0.964
19 | ACAGTATAGG | 1.08
20 | ATACCATAT | 1.06
21 | TCGAGTTGGG | 0.952
22 | AGATAGTGCA | 0.99
23 | TCGAGGACT | 1.06
24 | CCCCGAGGAC | 2.54
25 | CTGCATATCA | 1.14
26 | GCAAAACCGG | 1.93

Row | Sequence | switch fluorescence ratio
27 | TATTAACACC | 1.02
28 | TCGCCGAGAA | 1.07
29 | GTGTAGGGAC | 1.01
30 | ACCAAAGCAC | 2.45
31 | GGGCGGCGTC | 0.999
32 | TACTGTTGGT | 1.02
33 | GTGCACACT | 1.06
34 | GGGTATTTAT | 1.04
35 | GGCTAACCGG | 1.01
36 | ATTACCGCCA | 1.36
37 | TATGTCGTCC | 1.07
38 | CAAGATCCCA | 1.03
39 | TCTCCGACGG | 1.66
40 | AAGATCCATT | 0.985
41 | TCGCCCATTG | 1.05
42 | CGGCTGCTTA | 1.04
43 | ATCTCAGATT | 0.955
44 | TCAAAAGTGC | 1.01
45 | GAGGCAAGGG | 1.03
46 | ACAGCTGTTG | 1
47 | CCTAGTCTTA | 0.975
48 | GGGCAGTCGT | 0.994
49 | TATTCTTTAC | 1.04
50 | GTTACCTGGC | 1.1
51 | GCCTGGGGCG | 0.979
52 | GTAACTCGGC | 0.999

Row | Sequence | switch fluorescence ratio
53 | TATTAACTGT | 1.03
54 | TAATGGACGG | 0.998
55 | ACCTCGAATC | 1.16
56 | GCGCTCGCTA | 1.1
57 | CCGGGAGCCA | 2.16
58 | AAGCGATTAG | 1.03
59 | AATTTTCTTA | 0.968
60 | TTGCAGACTA | 0.991
61 | GTGGTGGTT | 0.963
62 | CACCTTCTCA | 1.19
63 | GATGACCAGT | 1
64 | GGTGCCTCAG | 1.02
65 | ATCCGTTTAA | 1.09
66 | CTTCAGGGGG | 1.02
67 | TTCCAAGTAT | 1.03
68 | TGGGTACGTG | 1
69 | TGTGGTACGC | 0.986
70 | ATCGCTCGGT | 1
71 | CTGCATTGAA | 1.01
72 | ATATTGTTCC | 1.07
73 | CAGGACGGGA | 1.04
74 | CCGTGTGACA | 0.991
75 | CGGTTTGCTG | 1.03
76 | TCATTGATGG | 0.974
77 | CCATCTTTAC | 1.18
78 | GCTGGATTTG | 1

Row | Sequence | switch fluorescence ratio
79 | CCGTAGAGCG | 1.1
80 | AGCAGTAATT | 1.01
81 | TATCGGCTAA | 0.994
82 | GGTCGGTTCG | 1.05
83 | TTGATCTTGT | 0.963
84 | CTGGGTGGTG | 0.987
85 | GTTTCAAATG | 0.97
86 | CGCACGGGCG | 1
87 | TGCGTCCGTA | 1.05
88 | ATGACTGTGA | 0.974
89 | GCTGTTTAAT | 0.996
90 | CAGAGCATGT | 1.03
91 | CGTCATGTGG | 0.986
92 | GAGCAACGGG | 1.02
93 | CCCCAAAAAT | 1.67
94 | AAAGATTGGG | 1.02
95 | TATCTTGGT | 1.02
96 | CTGAGTACA | 1.02
97 | ACAAGGAGAC | 1.01
98 | TCTCCTAAGC | 1.1
99 | TAAAGTTCAA | 1.02
100 | CGGGGCGACG | 0.993
101 | CCATTAACCG | 1
102 | AACAGGCCGA | 1.02
103 | CCGAGATACC | 2.9
104 | GACGTTGAGT | 0.982

Row | Sequence | switch fluorescence ratio
105 | TTATATCTAA | 1.04
106 | CTCCTTCCAC | 2.27
107 | ACGCTAACTA | 1.3
108 | ACCGGTTGAA | 0.97
109 | TGAGTATGTA | 1
110 | TAGAAAGGCT | 0.931
111 | ACAAGGTTCT | 0.999
112 | CATAAGTCTT | 1.01
113 | GACATCCCCC | 1.13
114 | GAATTGCGCC | 0.991
115 | GCCCATCCCG | 1
116 | CACGTGACTA | 1.14
117 | CGCGAAATAA | 1.02
118 | TTACCTGTTG | 0.975
119 | GTAATGAGTC | 0.984
120 | CCAGGAAATG | 1.04
121 | GGGATTAGAG | 1.03
122 | ATCAAGTCCG | 1.04
123 | CATAGTTATG | 0.98
124 | TGGTTTGTGA | 1.36
125 | TAGGCGGGAT | 1
126 | ACCCTTTCGA | 1.19
127 | AGTTCGCGT | 0.959
128 | GGTCGTGGAA | 0.998
129 | TTCGTCAAAT | 1
130 | CTAGCCACTT | 0.996

Row | Sequence | switch fluorescence ratio
131 | AGTTTTACGT | 1.03
132 | TAAACGGTAG | 0.995
133 | AGGGGGAGG | 0.948
134 | CGTTATTAA | 1.04
135 | GGCAATAGCG | 1.01
136 | ATGACGCCCC | 1.25
137 | TCTGGTTCGG | 0.96
138 | TACTGATCAT | 1.01
139 | TTCTCCTTG | 1.03
140 | TGACTTCCGC | 1.7
141 | AAGGCACCCT | 1.05
142 | TCGGACCAAT | 1.89
143 | GCCTTAGGAA | 1.15
144 | ATCCGGAAGG | 1.75
145 | TCCGAATCCT | 1.1
146 | GAACCAGTAT | 0.996
147 | ATGTATAAGC | 0.997
148 | TTGCACCTGA | 1.05
149 | GCGATACGT | 2.56
150 | TAAATTTAGT | 0.993
151 | AACCCCGGA | 1.04
152 | GTAGGCTACT | 1.03
153 | TTTTTACGTC | 0.987
154 | ACACCGCTAG | 2.22
155 | TCTCTGGACG | 1.02
156 | TTGCTCCA | 1.01

Row | Sequence | switch fluorescence ratio
157 | GGCGCATAAG | 1.06
158 | CACAGTATCC | 1.07
159 | TTTTGACAAC | 1.04
160 | AACAAACCAC | 1.1
161 | GGGCCAAGTG | 0.999
162 | GAGGATATTT | 0.983
163 | GATTTCCGCC | 1.64
164 | GAACTTCAGG | 1.02
165 | CTGCATCATT | 1.09
166 | GGTAATATGA | 1.01
167 | GTTTGGAGTA | 0.996
168 | ACAGGGATTA | 0.999
169 | TGGCCGGCAA | 1
170 | ACCTGTTTCG | 1.1
171 | TGCCTTGCGC | 0.935
172 | AACGATAGTT | 0.973
173 | GCCGGGTCCA | 1
174 | AATTCAGTGA | 1
175 | TTCTAAGCAA | 2.94
176 | TGCTGTATTA | 0.952
177 | CGGTATTGTA | 1.02
178 | GGCGCTTTTT | 1.01
179 | CGCGCAGGTC | 1.2
180 | GATAAAGAAT | 1.03
181 | GGATGATTCC | 1.05
182 | CGTAGATCAG | 0.977

Row | Sequence | switch fluorescence ratio
183 | ACATTCTCGG | 1.01
184 | GACGCCAATT | 2.45
185 | TACTGGGATT | 1.02
186 | TCTCTGTCAC | 1.49
187 | TGACTTGTAG | 1.01
188 | GCGACTGATG | 0.986
189 | AGAGTACTTG | 0.974
190 | GCTGGCGTAG | 0.972
191 | AATTGTTTG | 1
192 | GCTAGTAGGA | 1
193 | CCCTGTTTAG | 0.978
194 | GATGACACTT | 1.05
195 | CCTCAGATCG | 1.19
196 | GGTCGCCTGA | 1.02
197 | TAAAACTTGC | 1.06
198 | CGATCCGCCT | 1.08
199 | CCATGGCTGA | 0.999
200 | ATGGGCTT | 1
201 | ACGGGACCCC | 1.15
